Paper PMC12432536, “2‐Oxoglutarate Analog‐Based Biomolecular Tools for Exploring Structure–Activity Relationships in Nonheme Iron Enzymes” (Chembiochem, 2025)

Experiments:
PHD2 [1] = target: T1, PHD2 (Homo sapiens, UniProt Q9GZT9); assay: PHD2 hydroxylation activity assay (MALDI-TOF, HIF-1α peptide mimic): inhibition screen and dose response; settings: for inhibition of PHD2 activity in activity screen: 1 mM 2OG analogue, 1 mM 2OG, 2 µM PHD2, hydroxylation assay
I256A PHD2 = target: T2, I256A PHD2 (Homo sapiens, UniProt Q9GZT9, I256A); assay: Hydroxylation assay of PHD2 mutant I256A in the presence of analogs; assay type: biochemical; settings: 1 mM analog
T2 construct: WT-PHD2181-426 and mutants were expressed and purified as previously described; His6 (N); made in house; host or cells: E. coli BL21(DE3), pET-28a(+)
Text: (§1) We were encouraged by our computational studies to experimentally validate the predicted binding modes and interactions of the analogs using mutagenesis studies. We constructed five mutants (I256A, W258F, W258H, M299A, and Y310T) and monitored their activity using our hydroxylation assay in the presence of 1a and 1c to verify the importance of specific amino acids contributing to analog binding and inhibition (Figure 4D). The Y310T mutant was constructed to probe the potential hydrogen bond between the o‐methoxy group of 1c and Y310. However, hydroxylation activity was not observed with this mutant, likely due to perturbing interactions with the substrate, making further evaluation not possible.^[ [54] ^] The mutant was constructed to probe potential hydrophobic interactions with the methoxy‐substituted aryl rings. […] The W258F mutant was constructed to probe a potential hydrogen bond with the p‐methoxy group of both analogs, as the phenylalanine substitution should remove the hydrogen bond donating ability of the 258 residue. […] The W258H mutant was also constructed to probe the potential hydrogen bond with p‐methoxy group of both analogs, however, the histidine substitution should maintain the hydrogen bond donating ability of the 258 residue. […]
(§2) Activity was monitored in the presence […]
(§3) All spectra were recorded in […]

HIF‐1α = assay: Immunoblot monitoring of HIF-1α levels in HEK-293T cells; assay type: cell-based; settings: 18 hours; for dose at which noticeable HIF‐1α accumulation is seen: highest dose 2000 μM
W258H PHD2 = target: T3, W258H PHD2 (Homo sapiens, UniProt Q9GZT9, W258H); assay: Hydroxylation assay of PHD2 mutant W258H in the presence of analogs; assay type: biochemical; settings: 1 mM analog
T3 construct: WT-PHD2181-426 and mutants were expressed and purified as previously described; His6 (N); made in house; host or cells: E. coli BL21(DE3), pET-28a(+)
Text: as §1, §2, §3

W258F PHD2 = target: T4, W258F PHD2 (Homo sapiens, UniProt Q9GZT9, W258F); assay: Hydroxylation assay of PHD2 mutant W258F in the presence of analogs; assay type: biochemical; settings: 1 mM analog
T4 construct: WT-PHD2181-426 and mutants were expressed and purified as previously described; His6 (N); made in house; host or cells: E. coli BL21(DE3), pET-28a(+)
Text: as §1, §2, §3

PHD2 [2] = target: T1, PHD2; assay: 2OG-dependent steady-state kinetics of PHD2 inhibition; assay type: biochemical; parameters: WT-PHD2181-426 was incorporated into pET-28a(+) expression vector; His6 (N); made in house; host or cells: E. coli BL21(DE3), pET-28a(+); settings: for kcat of PHD2: ± SD; for Ki: from Michaelis–Menten / Lineweaver–Burk plots, varied 2OG, read-out: inhibition constant (Ki); for mechanism of inhibition: versus 2OG
Text: Next, we wanted to confirm that the analogs were in direct competition with 2OG. […] Michaelis–Menten plots and Lineweaver–Burk plots were used to confirm the mechanism of inhibition. […] Lineweaver–Burk plots further confirmed this observation as the trendlines intersected at the ordinate (Figure 3B and S5B, Supporting Information).
Briefly, the inhibition screening assay
Activity was monitored in the presence
which were dependent on the analogues’ potency.
MALDI-TOF mass spectrometry was used to
and 0.1% trifluoroacetic acid.
Colorimetric Assay for 2OG Detection
The solutions were then diluted 2-
as §3

M299A PHD2 = target: T5, M299A PHD2 (Homo sapiens, UniProt Q9GZT9, M299A); assay: Hydroxylation assay of PHD2 mutant M299A in the presence of analogs; assay type: biochemical; settings: 1 mM analog
T5 construct: WT-PHD2181-426 and mutants were expressed and purified as previously described; His6 (N); made in house; host or cells: E. coli BL21(DE3), pET-28a(+)
Text: as §1, §2, §3

Q: How did the IC50 (PHD2 [1]) turn out when `COc1ccc(/C=C/C(=O)C(=O)O)cc1OC` [1b] was run?
A: 1180 ± 270 µM

Q: With `COc1ccc(/C=C/C(=O)C(=O)O)cc1` [1a] as the compound, how does the “inhibition of I256A PHD2 relative to WT” value (I256A PHD2) read?
A: mostly maintained

Q: What about the IC50 (PHD2 [1]) of the same compound?
A: 292 ± 65 µM

Q: And the “inhibition of PHD2 activity in activity screen” value (PHD2 [1])?
A: increased inhibition compared to analogs 1b and 1d

Q: And the “HIF‐1α accumulation” value (HIF‐1α; increasing doses)?
A: not detected

Q: And the “inhibition of W258H PHD2 relative to WT and W258F” value (W258H PHD2)?
A: some inhibition

Q: And the “inhibition of W258F PHD2 relative to WT” value (W258F PHD2)?
A: significantly diminished

Q: And the “kcat of PHD2” value (PHD2 [2]; 200 µM analog)?
A: 0.0164 ± 0.0002 s⁻¹

Q: And the “kcat of PHD2” value (PHD2 [2]; 400 µM analog)?
A: 0.0157 ± 0.0009 s⁻¹

Q: What about the “kcat of PHD2” value (PHD2 [2]; 600 µM analog) of the same compound?
A: 0.0160 ± 0.0005 s⁻¹

Q: What about the Ki (PHD2 [2]) of the same compound?
A: 140 ± 10 µM

Q: And the mechanism of inhibition (PHD2 [2])?
A: competitive against 2OG

Q: What about the “inhibition of M299A PHD2 relative to WT” value (M299A PHD2) of the same compound?
A: decreased

Q: What does the source list for `COc1cc(OC)c(/C=C/C(=O)C(=O)O)c(OC)c1` [1c]?
A: inhibition of I256A PHD2 relative to WT (I256A PHD2): mostly maintained; IC50 (PHD2 [1]): 118 ± 35 µM; inhibition of PHD2 activity in activity screen (PHD2 [1]): increased inhibition compared to analogs 1b and 1d; dose at which noticeable HIF‐1α accumulation is seen (HIF‐1α): 2000 µM; inhibition of W258H PHD2 relative to WT and W258F (W258H PHD2): some inhibition; inhibition of W258F PHD2 relative to WT (W258F PHD2): significantly diminished; kcat of PHD2 (PHD2 [2]; 100 µM analog): 0.0161 ± 0.0007 s⁻¹; kcat of PHD2 (PHD2 [2]; 200 µM analog): 0.0161 ± 0.0009 s⁻¹; kcat of PHD2 (PHD2 [2]; 300 µM analog): 0.016 ± 0.001 s⁻¹; Ki (PHD2 [2]): 70 ± 7 µM; mechanism of inhibition (PHD2 [2]): competitive against 2OG; inhibition of M299A PHD2 relative to WT (M299A PHD2): decreased

Q: `COC(=O)CNC(=O)C(=O)OC` [DMOG, dimethyloxalylglycine, reference compound] was tested. Which “dose at which noticeable HIF‐1α accumulation is seen” value (HIF‐1α) did it give?
A: 500 µM

Q: For `O=C(O)CNC(=O)C(=O)O` [NOG, N‐oxalylglycine, reference compound], which “inhibition of PHD2 activity in activity screen” value (PHD2 [1]) is on record?
A: complete inhibition
